Measured values taken from publication PMC3525516.
Results are given in words; binding and its absence hold for the method and conditions named. Binding seen in cells or lysates may run through a third protein. Some entries that bind do so weakly or less than the wild type. For part of these data: Sequences can lack the tags named with a protein.

The chains behind the UniProt entries cited, without tags or fusion partners.
UniProt Q8WWF6: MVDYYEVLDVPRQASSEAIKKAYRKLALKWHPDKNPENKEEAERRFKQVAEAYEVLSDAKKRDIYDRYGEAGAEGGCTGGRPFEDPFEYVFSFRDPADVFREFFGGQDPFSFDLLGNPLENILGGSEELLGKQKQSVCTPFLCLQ
UniProt Q00613: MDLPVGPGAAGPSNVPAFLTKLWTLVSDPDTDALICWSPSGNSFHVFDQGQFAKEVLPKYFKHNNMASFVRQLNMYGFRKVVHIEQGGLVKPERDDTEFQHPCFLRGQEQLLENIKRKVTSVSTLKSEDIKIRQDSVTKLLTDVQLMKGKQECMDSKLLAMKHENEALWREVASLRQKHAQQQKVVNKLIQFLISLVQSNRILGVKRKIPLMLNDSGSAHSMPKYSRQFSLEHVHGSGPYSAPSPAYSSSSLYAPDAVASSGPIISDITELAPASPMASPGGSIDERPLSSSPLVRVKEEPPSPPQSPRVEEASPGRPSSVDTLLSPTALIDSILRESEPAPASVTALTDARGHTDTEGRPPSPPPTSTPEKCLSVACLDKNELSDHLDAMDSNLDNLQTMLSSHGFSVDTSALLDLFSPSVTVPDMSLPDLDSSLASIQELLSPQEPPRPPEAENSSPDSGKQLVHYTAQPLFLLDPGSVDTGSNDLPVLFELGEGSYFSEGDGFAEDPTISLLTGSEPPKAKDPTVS
UniProt P11142: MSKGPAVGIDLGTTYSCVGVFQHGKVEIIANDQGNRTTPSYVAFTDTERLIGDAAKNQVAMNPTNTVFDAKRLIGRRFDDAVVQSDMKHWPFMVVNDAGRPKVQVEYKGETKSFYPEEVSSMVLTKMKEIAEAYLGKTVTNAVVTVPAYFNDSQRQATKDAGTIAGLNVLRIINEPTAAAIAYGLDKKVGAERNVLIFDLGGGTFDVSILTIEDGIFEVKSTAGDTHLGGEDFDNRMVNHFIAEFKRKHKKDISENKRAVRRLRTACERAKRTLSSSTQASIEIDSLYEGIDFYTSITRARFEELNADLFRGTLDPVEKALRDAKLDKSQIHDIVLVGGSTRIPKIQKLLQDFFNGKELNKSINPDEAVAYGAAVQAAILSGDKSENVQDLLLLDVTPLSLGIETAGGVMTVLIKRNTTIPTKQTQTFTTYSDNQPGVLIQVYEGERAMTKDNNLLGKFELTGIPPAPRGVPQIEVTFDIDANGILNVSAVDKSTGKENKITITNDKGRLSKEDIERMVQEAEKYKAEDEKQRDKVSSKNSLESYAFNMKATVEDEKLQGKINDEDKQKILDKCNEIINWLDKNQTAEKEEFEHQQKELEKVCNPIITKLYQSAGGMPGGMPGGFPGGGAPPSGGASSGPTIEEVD
UniProt Q61696: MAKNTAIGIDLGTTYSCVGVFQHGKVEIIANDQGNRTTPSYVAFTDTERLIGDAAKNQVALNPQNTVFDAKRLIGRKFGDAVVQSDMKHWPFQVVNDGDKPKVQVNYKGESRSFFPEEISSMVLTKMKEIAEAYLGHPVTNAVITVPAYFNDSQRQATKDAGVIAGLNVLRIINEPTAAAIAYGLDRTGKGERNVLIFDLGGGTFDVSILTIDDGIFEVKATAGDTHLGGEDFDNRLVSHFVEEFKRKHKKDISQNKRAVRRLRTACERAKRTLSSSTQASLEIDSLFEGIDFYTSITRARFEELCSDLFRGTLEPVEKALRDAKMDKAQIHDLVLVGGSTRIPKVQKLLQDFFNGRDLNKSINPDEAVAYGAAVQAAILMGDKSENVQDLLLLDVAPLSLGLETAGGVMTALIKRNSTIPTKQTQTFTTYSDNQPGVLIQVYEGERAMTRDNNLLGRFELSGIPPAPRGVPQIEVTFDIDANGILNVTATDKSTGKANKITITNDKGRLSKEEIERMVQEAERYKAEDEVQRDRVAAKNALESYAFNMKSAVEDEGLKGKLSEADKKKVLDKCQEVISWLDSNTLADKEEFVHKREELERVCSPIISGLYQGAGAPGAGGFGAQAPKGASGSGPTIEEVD
UniProt P02340: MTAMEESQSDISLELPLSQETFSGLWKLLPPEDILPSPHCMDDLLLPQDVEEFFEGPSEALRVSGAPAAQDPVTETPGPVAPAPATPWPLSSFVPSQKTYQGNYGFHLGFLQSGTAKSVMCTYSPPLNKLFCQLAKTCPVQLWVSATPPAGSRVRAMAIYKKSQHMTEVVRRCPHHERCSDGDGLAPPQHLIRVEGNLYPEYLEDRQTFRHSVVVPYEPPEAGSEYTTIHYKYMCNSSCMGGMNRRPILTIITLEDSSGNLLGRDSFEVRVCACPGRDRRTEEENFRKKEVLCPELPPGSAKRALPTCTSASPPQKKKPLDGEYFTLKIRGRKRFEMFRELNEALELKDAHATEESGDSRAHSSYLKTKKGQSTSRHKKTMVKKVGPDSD
UniProt P08670: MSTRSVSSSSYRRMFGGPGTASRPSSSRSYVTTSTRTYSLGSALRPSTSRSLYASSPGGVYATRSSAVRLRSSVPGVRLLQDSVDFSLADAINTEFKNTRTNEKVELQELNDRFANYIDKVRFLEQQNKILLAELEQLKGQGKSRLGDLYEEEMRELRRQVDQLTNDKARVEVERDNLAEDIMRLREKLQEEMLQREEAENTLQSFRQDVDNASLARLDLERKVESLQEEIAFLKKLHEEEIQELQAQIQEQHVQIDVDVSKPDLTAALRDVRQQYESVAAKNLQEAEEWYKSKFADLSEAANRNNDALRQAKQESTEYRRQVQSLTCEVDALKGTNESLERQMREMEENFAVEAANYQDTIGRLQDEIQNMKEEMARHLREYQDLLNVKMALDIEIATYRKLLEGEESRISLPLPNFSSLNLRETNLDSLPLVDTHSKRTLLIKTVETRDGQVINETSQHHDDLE
UniProt Q04207: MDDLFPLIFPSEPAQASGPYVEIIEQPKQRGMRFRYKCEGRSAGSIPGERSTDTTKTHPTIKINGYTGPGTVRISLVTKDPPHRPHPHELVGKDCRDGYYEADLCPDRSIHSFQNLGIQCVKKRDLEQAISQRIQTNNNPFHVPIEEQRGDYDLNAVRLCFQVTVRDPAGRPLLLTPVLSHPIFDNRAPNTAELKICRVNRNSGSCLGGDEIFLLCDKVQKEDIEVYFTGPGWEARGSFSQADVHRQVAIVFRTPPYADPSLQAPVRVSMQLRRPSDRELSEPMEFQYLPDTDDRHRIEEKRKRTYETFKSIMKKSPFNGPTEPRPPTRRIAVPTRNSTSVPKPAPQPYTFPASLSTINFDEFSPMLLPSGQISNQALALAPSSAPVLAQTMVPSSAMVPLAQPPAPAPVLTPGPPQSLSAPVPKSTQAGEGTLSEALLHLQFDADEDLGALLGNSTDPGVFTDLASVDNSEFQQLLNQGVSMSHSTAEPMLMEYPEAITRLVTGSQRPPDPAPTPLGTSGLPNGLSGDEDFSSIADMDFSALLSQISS
UniProt P42859: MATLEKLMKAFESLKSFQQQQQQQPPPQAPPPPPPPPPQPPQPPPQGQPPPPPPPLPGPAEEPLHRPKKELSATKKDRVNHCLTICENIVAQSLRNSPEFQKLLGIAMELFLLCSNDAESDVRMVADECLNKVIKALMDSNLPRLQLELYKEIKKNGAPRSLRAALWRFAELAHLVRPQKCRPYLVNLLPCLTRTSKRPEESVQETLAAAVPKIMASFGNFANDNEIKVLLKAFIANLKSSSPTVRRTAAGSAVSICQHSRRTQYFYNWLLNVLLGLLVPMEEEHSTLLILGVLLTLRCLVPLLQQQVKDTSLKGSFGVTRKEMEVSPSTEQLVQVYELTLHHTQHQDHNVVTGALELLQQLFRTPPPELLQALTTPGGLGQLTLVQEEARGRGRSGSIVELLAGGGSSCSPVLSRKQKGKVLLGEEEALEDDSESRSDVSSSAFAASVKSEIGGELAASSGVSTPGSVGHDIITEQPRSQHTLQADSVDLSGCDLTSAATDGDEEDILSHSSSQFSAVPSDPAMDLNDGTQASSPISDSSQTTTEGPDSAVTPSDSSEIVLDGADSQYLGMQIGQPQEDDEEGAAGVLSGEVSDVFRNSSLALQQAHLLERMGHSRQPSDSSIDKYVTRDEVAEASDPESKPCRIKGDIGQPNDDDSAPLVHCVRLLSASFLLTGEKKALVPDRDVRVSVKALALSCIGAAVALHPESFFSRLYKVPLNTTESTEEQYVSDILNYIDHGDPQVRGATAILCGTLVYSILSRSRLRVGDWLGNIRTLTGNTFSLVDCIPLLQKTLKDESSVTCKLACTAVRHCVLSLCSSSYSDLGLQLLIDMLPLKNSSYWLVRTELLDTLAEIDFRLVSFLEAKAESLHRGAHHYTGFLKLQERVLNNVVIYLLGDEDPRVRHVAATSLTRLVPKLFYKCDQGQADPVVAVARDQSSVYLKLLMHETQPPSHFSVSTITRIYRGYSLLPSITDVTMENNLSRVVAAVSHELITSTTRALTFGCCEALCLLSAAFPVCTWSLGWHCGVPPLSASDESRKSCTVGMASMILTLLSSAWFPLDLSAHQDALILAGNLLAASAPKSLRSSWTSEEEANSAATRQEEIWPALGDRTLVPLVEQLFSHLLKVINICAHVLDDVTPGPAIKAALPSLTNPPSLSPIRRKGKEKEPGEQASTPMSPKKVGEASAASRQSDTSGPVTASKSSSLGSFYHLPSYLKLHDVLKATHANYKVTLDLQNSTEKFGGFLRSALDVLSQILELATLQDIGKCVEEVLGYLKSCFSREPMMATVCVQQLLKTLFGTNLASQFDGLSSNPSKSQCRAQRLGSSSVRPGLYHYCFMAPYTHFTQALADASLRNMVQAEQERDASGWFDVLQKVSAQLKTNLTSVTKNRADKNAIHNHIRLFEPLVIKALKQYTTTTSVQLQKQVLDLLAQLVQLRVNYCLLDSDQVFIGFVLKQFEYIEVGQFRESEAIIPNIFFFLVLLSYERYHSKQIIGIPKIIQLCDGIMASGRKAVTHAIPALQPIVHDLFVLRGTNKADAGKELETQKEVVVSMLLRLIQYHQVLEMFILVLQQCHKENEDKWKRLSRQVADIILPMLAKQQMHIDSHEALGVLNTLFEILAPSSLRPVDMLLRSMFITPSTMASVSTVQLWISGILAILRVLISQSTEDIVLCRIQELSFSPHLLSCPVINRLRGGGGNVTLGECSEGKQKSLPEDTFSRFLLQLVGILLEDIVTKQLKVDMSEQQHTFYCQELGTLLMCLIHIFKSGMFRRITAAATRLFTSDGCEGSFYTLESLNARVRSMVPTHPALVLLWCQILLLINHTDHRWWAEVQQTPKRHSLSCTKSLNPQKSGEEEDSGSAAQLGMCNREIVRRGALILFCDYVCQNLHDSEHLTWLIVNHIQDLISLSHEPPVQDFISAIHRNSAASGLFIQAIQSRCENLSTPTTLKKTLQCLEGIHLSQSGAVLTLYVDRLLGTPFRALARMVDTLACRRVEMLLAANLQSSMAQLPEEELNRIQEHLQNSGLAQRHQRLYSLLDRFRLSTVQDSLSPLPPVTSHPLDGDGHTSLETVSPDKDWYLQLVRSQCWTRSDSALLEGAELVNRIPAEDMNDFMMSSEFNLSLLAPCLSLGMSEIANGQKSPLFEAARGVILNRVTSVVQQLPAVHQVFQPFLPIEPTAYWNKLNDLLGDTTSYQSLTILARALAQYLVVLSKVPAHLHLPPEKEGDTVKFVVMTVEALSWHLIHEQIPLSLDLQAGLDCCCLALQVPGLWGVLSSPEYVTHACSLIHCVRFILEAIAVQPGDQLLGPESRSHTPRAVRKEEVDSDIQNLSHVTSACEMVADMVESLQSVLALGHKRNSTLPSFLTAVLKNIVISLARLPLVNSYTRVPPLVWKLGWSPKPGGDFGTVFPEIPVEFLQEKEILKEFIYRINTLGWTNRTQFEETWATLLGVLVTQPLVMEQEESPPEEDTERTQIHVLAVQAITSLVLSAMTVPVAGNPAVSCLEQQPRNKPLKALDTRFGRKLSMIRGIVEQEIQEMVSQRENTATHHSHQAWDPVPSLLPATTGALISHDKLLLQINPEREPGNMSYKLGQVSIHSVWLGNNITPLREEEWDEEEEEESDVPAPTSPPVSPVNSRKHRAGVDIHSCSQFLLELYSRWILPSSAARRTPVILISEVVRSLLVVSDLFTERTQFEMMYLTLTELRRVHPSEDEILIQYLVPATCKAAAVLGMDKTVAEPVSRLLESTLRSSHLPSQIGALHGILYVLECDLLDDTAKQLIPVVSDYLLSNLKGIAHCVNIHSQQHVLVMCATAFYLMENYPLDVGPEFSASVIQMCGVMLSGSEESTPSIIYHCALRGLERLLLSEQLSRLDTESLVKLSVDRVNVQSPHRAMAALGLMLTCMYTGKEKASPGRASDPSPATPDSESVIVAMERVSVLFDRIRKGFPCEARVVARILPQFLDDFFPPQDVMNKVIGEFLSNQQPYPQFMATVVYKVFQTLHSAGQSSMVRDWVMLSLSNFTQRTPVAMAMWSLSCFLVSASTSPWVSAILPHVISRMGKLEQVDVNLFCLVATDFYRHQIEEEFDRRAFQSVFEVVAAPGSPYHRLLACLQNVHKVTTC

T1: Huntingtin Yeast Two-Hybrid Protein K, endogenous HYPK of mouse neuronal cells (mouse (endogenous in Neuro2A and STHdh cells)) (UniProt Q9CR41)
T1 sequence: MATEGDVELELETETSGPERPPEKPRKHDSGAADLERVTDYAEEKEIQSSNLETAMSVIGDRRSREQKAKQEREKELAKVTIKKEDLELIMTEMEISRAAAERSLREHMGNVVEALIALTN


Target: T1, Huntingtin Yeast Two-Hybrid Protein K, endogenous HYPK of mouse neuronal cells (mouse (endogenous in Neuro2A and STHdh cells))
Assay: co-IP; anti-HYPK antibody precipitates endogenous HYPK from soluble cell lysate (Neuro2A where named), partners endogenous or overexpressed with DsRed or GFP; eluted with 100 mM glycine pH 3.0; SDS-PAGE western blot; for TP53 also with the antibodies swapped

Molecule | binding
DNAJB3-GFP (from UniProt Q8WWF6 1-145) | binds
HSF1-GFP (from UniProt Q00613 1-529) | binds
HSPA8-DsRed (from UniProt P11142 1-646) | binds
Heat shock 70kDa protein 1A, endogenous in Neuro2A (from UniProt Q61696 1-641) | binds
Tumor protein p53, endogenous (from UniProt P02340 1-390) | binds
VIM-DsRed (from UniProt P08670 1-466) | binds
v-rel reticuloendotheliosis viral oncogene homolog A (avian), endogenous (from UniProt Q04207 1-549) | binds
MLF1-GFP (protein, UniProt P58340 1-268) MFRMLNSSFEDDPFFSESILAHRENMRQMIRSFSEPFGRDLLSISDGRGRAHNRRGHNDGEDSLTHTDVSSFQTMDQMVSNMRNYMQKLERNFGQLSVDPNGHSFCSSSVMTYSKIGDEPPKVFQASTQTRRAPGGIKETRKAMRDSDSGLEKMAIGHHIHDRAHVIKKSKNKKTGDEEVNQEFINMNESDAHAFDEEWQSEVLKYKPGRHNLGNTRMRSVGHENPGSRELKRREKPQQSPAIEHGRRSNVLGDKLHIKGSSVKSNKK | binds
MLF2-GFP (protein, UniProt Q15773 1-248) MFRFMRDVEPEDPMFLMDPFAIHRQHMSRMLSGGFGYSPFLSITDGNMPGTRPASRRMQQAGAVSPFGMLGMSGGFMDMFGMMNDMIGNMEHMTAGGNCQTFSSSTVISYSNTGDGAPKVYQETSEMRSAPGGIRETRRTVRDSDSGLEQMSIGHHIRDRAHILQRSRNHRTGDQEERQDYINLDESEAAAFDDEWRRETSRFRQQRPLEFRRLESSGAGGRRAEGPPRLAIQGPEDSPSRQSRRYDW | binds
HIP1, endogenous in Neuro2A (protein, UniProt Q8VD75 1-1029) MDRMASSMKQVSNPLPKVLSRRGVGAGMEAAERESFERTQTVSVNKAINTQEVAVKEKHARTCILGTHHEKGAQTFWSVVNRLPLSSNAMLCWKFCHVFHKLLRDGHPNVLKDSLRYKNELSDMSRMWGHLSEGYGQLCSIYLKLLRTRMEYHTKNPRFPGNLQMSDRQLDEAGESDVNNFFQLTVEMFDYLECELNLFQTVFNSLDMSRSVSVTTAGQCRLAPLIQVILDCSHLYDYTVKLLFKLHSCLPADTLQGHRDRFMEQFTKLKDLFQRSSNLQYFKRLIQIPQLPENPPNFLRASALSEHISPVVVIPAEVSSPDSEPVLEKDDLMDMDASQQTLFDNKFDDVFGSSLSSDPFNFNNQNGVNKDEKDHLIERLYREISGLTGQLDNMKIESQRAMLQLKGRVSELEAELAEQQHLGRQAMDDCEFLRTELDELKRQREDTEKAQRSLTEIERKAQANEQRYSKLKEKYSELVQNHADLLRKNAEVTKQVSVARQAQVDLEREKKELADSFARTQEQQDVLENLKHELATSRQELQVLHSNLETSAQSEAKWLTQIAELEKEQGSLATVAAQREEELSALRDQLESTQIKLAGAQESMCQQVKDQRKTLLAGIRKAAEREIQEALSQLEEPTLISCAGSTDHLLSKVSSVSSCLEQLEKNGSQYLACPEDISELLHSITLLAHLTGDTIIQGSATSLRAPPEPADSLTEACRQYGRETLAYLSSLEEEGTMENADVTALRNCLSRVKTLGEELLPRGLDIKQEELGDLVDKEMAATSAAIEAATTRIEEILSKSRAGDTGVKLEVNERILGSCTSLMQAIKVLVVASKDLQKEIVESGRGTASPKEFYAKNSRWTEGLISASKAVGWGATIMVDAADLVVQGKGKFEELMVCSREIAASTAQLVAASKVKANKGSLNLTQLQQASRGVNQATAAVVASTISGKSQIEETDSMDFSSMTLTQIKRQEMDSQVRVLELENDLQKERQKLGELRKKHYELAGVAEGWEEGTEASPSTVQEAIPDKE | no binding
LMNB2-DsRed (protein, UniProt Q03252 1-620) MSPPSPGRRREQRRPRAAATMATPLPGRAGGPATPLSPTRLSRLQEKEELRELNDRLAHYIDRVRALELENDRLLLKISEKEEVTTREVSGIKALYESELADARRVLDETARERARLQIEIGKLRAELDEVNKSAKKREGELTVAQGRVKDLESLFHRSEVELAAALSDKRGLESDVAELRAQLAKAEDGHAVAKKQLEKETLMRVDLENRCQSLQEELDFRKSVFEEEVRETRRRHERRLVEVDSSRQQEYDFKMAQALEELRSQHDEQVRLYKLELEQTYQAKLDSAKLSSDQNDKAASAAREELKEARMRLESLSYQLSGLQKQASAAEDRIRELEEAMAGERDKFRKMLDAKEQEMTEMRDVMQQQLAEYQELLDVKLALDMEINAYRKLLEGEEERLKLSPSPSSRVTVSRATSSSSGSLSATGRLGRSKRKRLEVEEPLGSGPSVLGTGTGGSGGFHLAQQASASGSVSIEEIDLEGKFVQLKNNSDKDQSLGNWRIKRQVLEGEEIAYKFTPKYILRAGQMVTVWAAGAGVAHSPPSTLVWKGQSSWGTGESFRTVLVNADGEEVAMRTVKKSSVMRENENGEEEEEEAEFGEEDLFHQQGDPRTTSRGCYVM | binds
HIP1-DsRed (protein, UniProt O00291 1-1037) MDRMASSMKQVPNPLPKVLSRRGVGAGLEAAERESFERTQTVSINKAINTQEVAVKEKHARTCILGTHHEKGAQTFWSVVNRLPLSSNAVLCWKFCHVFHKLLRDGHPNVLKDSLRYRNELSDMSRMWGHLSEGYGQLCSIYLKLLRTKMEYHTKNPRFPGNLQMSDRQLDEAGESDVNNFFQLTVEMFDYLECELNLFQTVFNSLDMSRSVSVTAAGQCRLAPLIQVILDCSHLYDYTVKLLFKLHSCLPADTLQGHRDRFMEQFTKLKDLFYRSSNLQYFKRLIQIPQLPENPPNFLRASALSEHISPVVVIPAEASSPDSEPVLEKDDLMDMDASQQNLFDNKFDDIFGSSFSSDPFNFNSQNGVNKDEKDHLIERLYREISGLKAQLENMKTESQRVVLQLKGHVSELEADLAEQQHLRQQAADDCEFLRAELDELRRQREDTEKAQRSLSEIERKAQANEQRYSKLKEKYSELVQNHADLLRKNAEVTKQVSMARQAQVDLEREKKELEDSLERISDQGQRKTQEQLEVLESLKQELATSQRELQVLQGSLETSAQSEANWAAEFAELEKERDSLVSGAAHREEELSALRKELQDTQLKLASTEESMCQLAKDQRKMLLVGSRKAAEQVIQDALNQLEEPPLISCAGSADHLLSTVTSISSCIEQLEKSWSQYLACPEDISGLLHSITLLAHLTSDAIAHGATTCLRAPPEPADSLTEACKQYGRETLAYLASLEEEGSLENADSTAMRNCLSKIKAIGEELLPRGLDIKQEELGDLVDKEMAATSAAIETATARIEEMLSKSRAGDTGVKLEVNERILGCCTSLMQAIQVLIVASKDLQREIVESGRGTASPKEFYAKNSRWTEGLISASKAVGWGATVMVDAADLVVQGRGKFEELMVCSHEIAASTAQLVAASKVKADKDSPNLAQLQQASRGVNQATAGVVASTISGKSQIEETDNMDFSSMTLTQIKRQEMDSQVRVLELENELQKERQKLGELRKKHYELAGVAEGWEEGTEASPPTLQEVVTEKE | no binding

Target: Tumor protein p53, endogenous (mouse (endogenous in STHdhQ7/HdhQ7)) (UniProt P02340)
Assay: as above

Molecule | binding
Huntingtin Yeast Two-Hybrid Protein K, endogenous HYPK of mouse neuronal cells (protein, UniProt Q9CR41 1-121) MATEGDVELELETETSGPERPPEKPRKHDSGAADLERVTDYAEEKEIQSSNLETAMSVIGDRRSREQKAKQEREKELAKVTIKKEDLELIMTEMEISRAAAERSLREHMGNVVEALIALTN | binds

Target: T1, Huntingtin Yeast Two-Hybrid Protein K, endogenous HYPK of mouse neuronal cells (mouse (endogenous in Neuro2A and STHdh cells))
Assay: co-IP; anti-HYPK immunoprecipitate elute from Neuro2A, STHdhQ7/HdhQ7 or STHdhQ111/HdhQ111 cell extract run on native PAGE and blotted; partners detected in the high molecular weight complex

Molecule | binding
Heat shock 70kDa protein 1A, endogenous in Neuro2A (from UniProt Q61696 1-641) | binds
Huntingtin, full-length with 7 glutamine residues (STHdhQ7/HdhQ7) (from UniProt P42859 1-3119) | binds
Tumor protein p53, endogenous (from UniProt P02340 1-390) | binds
v-rel reticuloendotheliosis viral oncogene homolog A (avian), endogenous (from UniProt Q04207 1-549) | binds
Lamin B2, endogenous in STHdh cells (protein, UniProt P21619 1-596) MASLPPHAGPATPLSPTRLSRLQEKEELRELNDRLAHYIDRVRALELENDRLLLRISEKEEVTTREVSGIKTLYESELADARRVLDETARERARLQIEIGKVQAELEEARKSAKKREGELTVAQGRVKDLESLFHRSEAELATALSDKQGLETEVAELRAQLAKAEDGHAVAKKQLEKETLMRVDLENRCQSLQEELAFSKSVFEEEVRETRRRHERRLVEVDSSRQQEYDFKMAQALEDLRSQHDEQVRLYRVELEQTYQAKLDNAKLLSDQNDKAAHAAREELKEARMRVESLSYQLLGLQKQASAAENHIHELEEALAGERDKFRKMLDAKEQEMTEVRDAMQQQLAEYQELLDIKLALDMEISAYRKLLEGEEERLKLSPSPSSRITISRATSSSSSSSGVGMSVGQGRGKRRRLETEDTSGSPSRASRVSSGSRLAQQTVATGVVNIDEVDPEGRFVRLKNSSDKDQSLGNWRIKRQVLEGEDIAYKFTPKYVLRAGQTVTVWAAGAGATHSPPSTLVWKSQTNWGPGESFRTALVSADGEEVAVKAAKHSSVQGRENGEEEEEEEAEFGEEDLFHQQGDPRTTSRGCRLM | binds
